Data: US11564922B2, “Methods of treating crohn's disease and ulcerative colitis” (AbbVie Inc., priority 2017, dated 2023)

Test system: subjects with moderately to severely active Crohn's Disease
Test: Study M14-430 Sub-study 1: Phase 3, 52-week randomized double-blind maintenance study of upadacitinib vs placebo (Cohort 1, ITT1)
Settings: for Resolution of EIMs, (%) Estimate: Week 52, subjects with EIMs at Baseline; for Resolution of EIMs, (%) Estimate / Discontinued Study Drug: Adverse event / Discontinued Study Drug: Lack of efficacy / Occurrence of CD-related hospitalization, (n/100 PYs) Estimate: ITT1; for Change from BL in FACIT-F, (LS Mean) Estimate / Change from BL in IBDQ, (LS Mean) Estimate / CR-100, (%) Estimate / Clinical remission per CDAI and endoscopic remission, (%) Estimate / Clinical remission per CDAI, (%) Estimate / Clinical remission per PROs and endoscopic remission, (%) Estimate / Clinical remission per PROs, (%) Estimate / Endoscopic remission, (%) Estimate / Endoscopic response, (%) Estimate / Steroid-free clinical remission per CDAI, among all subjects, (%) Estimate / Steroid-free clinical remission per PROs, among all subjects, (%) Estimate: Week 52, ITT1 Population; for Change from BL in FACIT-F, (LS Mean) Estimate / Change from BL in IBDQ, (LS Mean) Estimate: MMRM; for Maintenance of clinical remission per CDAI, (%) Estimate / Maintenance of clinical remission per PROs, (%) Estimate: Week 52 among subjects in clinical remission at Week 0, ITT1; for Completed Study Drug After Receiving OL Rescue, UPA 30 mg QD / Completed Study Drug Without Receiving OL Rescue, UPA 30 mg QD: Sub-study 1, ITT1; for Discontinued Study Drug: Adverse event / Discontinued Study Drug: Lack of efficacy: primary reason; for Occurrence of CD-related hospitalization, (n/100 PYs) Estimate: exposure-adjusted incidence rate during Sub-study 1, as-observed
[1] = UPA 15 mg (N = 169), after receiving OL rescue UPA 30 mg QD
[2] = UPA 15 mg (N = 169), without receiving OL rescue
[3] = UPA 30 mg (N = 168), without receiving OL rescue

In the case of `CC[C@@H]1CN(C(=O)NCC(F)(F)F)C[C@@H]1c1cnc2cnc3[nH]ccc3n12` [UPA, upadacitinib], the “Resolution of EIMs, (%) Estimate” value (UPA 15 mg (N = 61)) is reported as 24.6%, the “Change from BL in FACIT-F, (LS Mean) Estimate” value (UPA 15 mg (N = 78)) is reported as 14.3 and the “Change from BL in IBDQ, (LS Mean) Estimate” value (UPA 15 mg (N = 78)) is reported as 59.3. The “Maintenance of clinical remission per CDAI, (%) Estimate” value (UPA 15 mg (N = 101)) was 49.5%, the “Maintenance of clinical remission per PROs, (%) Estimate” value (UPA 15 mg (N = 105)) was 50.5% and the “Completed Study Drug After Receiving OL Rescue, UPA 30 mg QD” value (UPA 15 mg (N = 169)) was “(21.9) %”. The “Completed Study Drug Without Receiving OL Rescue, UPA 30 mg QD” value (UPA 15 mg (N = 169)) was “(52.1) %”, the “CR-100, (%) Estimate” value (UPA 15 mg (N = 169)) was 41.4% and the “Clinical remission per CDAI and endoscopic remission, (%) Estimate” value (UPA 15 mg (N = 169)) was 14.8%. The “Clinical remission per CDAI, (%) Estimate” value (UPA 15 mg (N = 169)) was 37.3%, the “Clinical remission per PROs and endoscopic remission, (%) Estimate” value (UPA 15 mg (N = 169)) was 13.7% and the “Clinical remission per PROs, (%) Estimate” value (UPA 15 mg (N = 169)) was 35.5%. The “Endoscopic remission, (%) Estimate” value (UPA 15 mg (N = 169)) was 19.1%, the “Endoscopic response, (%) Estimate” value (UPA 15 mg (N = 169)) was 27.6% and the “Steroid-free clinical remission per CDAI, among all subjects, (%) Estimate” value (UPA 15 mg (N = 169)) was 36.7%. The “Steroid-free clinical remission per PROs, among all subjects, (%) Estimate” value (UPA 15 mg (N = 169)) was 34.9%, the “Discontinued Study Drug: Adverse event” value [1] was “(3.6) %” and the “Discontinued Study Drug: Lack of efficacy” value [1] was “(5.3) %”. The “Occurrence of CD-related hospitalization, (n/100 PYs) Estimate” value (UPA 15 mg (N = 169)) was 11.2 n/100 PYs, the “Discontinued Study Drug: Adverse event” value [2] was “(5.9) %” and the “Discontinued Study Drug: Lack of efficacy” value [2] was “(3.0) %”. The “Resolution of EIMs, (%) Estimate” value (UPA 30 mg (N = 73)) was 35.6%, the “Maintenance of clinical remission per CDAI, (%) Estimate” value (UPA 30 mg (N = 92)) was 65.2% and the “Change from BL in FACIT-F, (LS Mean) Estimate” value (UPA 30 mg (N = 94)) was 16.1. The “Change from BL in IBDQ, (LS Mean) Estimate” value (UPA 30 mg (N = 94)) was 64.5, the “Maintenance of clinical remission per PROs, (%) Estimate” value (UPA 30 mg (N = 105)) was 60.0% and the “Completed Study Drug After Receiving OL Rescue, UPA 30 mg QD” value (UPA 30 mg (N = 168)) was “(17.3) %”. The “Completed Study Drug Without Receiving OL Rescue, UPA 30 mg QD” value (UPA 30 mg (N = 168)) was “(62.5) %”, the “CR-100, (%) Estimate” value (UPA 30 mg (N = 168)) was 51.2% and the “Clinical remission per CDAI and endoscopic remission, (%) Estimate” value (UPA 30 mg (N = 168)) was 23.2%. For the same compound, the “Clinical remission per CDAI, (%) Estimate” value (UPA 30 mg (N = 168)) was 47.6%, the “Clinical remission per PROs and endoscopic remission, (%) Estimate” value (UPA 30 mg (N = 168)) was 22.6% and the “Clinical remission per PROs, (%) Estimate” value (UPA 30 mg (N = 168)) was 46.4%. The “Endoscopic remission, (%) Estimate” value (UPA 30 mg (N = 168)) was 28.6%, the “Endoscopic response, (%) Estimate” value (UPA 30 mg (N = 168)) was 40.1% and the “Steroid-free clinical remission per CDAI, among all subjects, (%) Estimate” value (UPA 30 mg (N = 168)) was 46.4%. For the same compound, the “Steroid-free clinical remission per PROs, among all subjects, (%) Estimate” value (UPA 30 mg (N = 168)) was 44.6%, the “Discontinued Study Drug: Lack of efficacy” value (UPA 30 mg (N = 168), after receiving OL rescue UPA 30 mg QD) was “(5.4) %” and the “Occurrence of CD-related hospitalization, (n/100 PYs) Estimate” value (UPA 30 mg (N = 168)) was 7.8 n/100 PYs. For the same compound, the “Discontinued Study Drug: Adverse event” value [3] was “(6.0) %” and the “Discontinued Study Drug: Lack of efficacy” value [3] was “(0.6) %”.
